Assay results: publication PMC11176168
These are yes or no findings as the source states them, for the method shown. Binding seen in cells or lysates may run through a third protein. Some results given as binding are weak or reduced against the parent protein; the word gives no strength.

Chains of the proteins cited; added tags and fusions are not shown. Lines headed by an entry give the natural chain unless they say otherwise; changes in a name come on top. Residues count along the entry.
UniProt Q99784, residues 17-485: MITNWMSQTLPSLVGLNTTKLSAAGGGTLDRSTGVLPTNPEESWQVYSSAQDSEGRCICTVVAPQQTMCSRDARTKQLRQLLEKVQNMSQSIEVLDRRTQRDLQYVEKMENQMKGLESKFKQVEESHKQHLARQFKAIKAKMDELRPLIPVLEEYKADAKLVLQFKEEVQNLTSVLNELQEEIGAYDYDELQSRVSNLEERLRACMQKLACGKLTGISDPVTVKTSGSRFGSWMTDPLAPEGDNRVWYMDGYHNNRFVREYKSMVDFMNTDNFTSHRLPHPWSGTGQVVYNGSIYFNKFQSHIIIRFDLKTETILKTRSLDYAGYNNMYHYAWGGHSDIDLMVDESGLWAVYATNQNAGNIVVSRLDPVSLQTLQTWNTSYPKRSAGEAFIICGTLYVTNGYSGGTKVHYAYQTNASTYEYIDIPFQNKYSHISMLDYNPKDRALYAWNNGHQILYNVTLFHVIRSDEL
UniProt Q6UX06: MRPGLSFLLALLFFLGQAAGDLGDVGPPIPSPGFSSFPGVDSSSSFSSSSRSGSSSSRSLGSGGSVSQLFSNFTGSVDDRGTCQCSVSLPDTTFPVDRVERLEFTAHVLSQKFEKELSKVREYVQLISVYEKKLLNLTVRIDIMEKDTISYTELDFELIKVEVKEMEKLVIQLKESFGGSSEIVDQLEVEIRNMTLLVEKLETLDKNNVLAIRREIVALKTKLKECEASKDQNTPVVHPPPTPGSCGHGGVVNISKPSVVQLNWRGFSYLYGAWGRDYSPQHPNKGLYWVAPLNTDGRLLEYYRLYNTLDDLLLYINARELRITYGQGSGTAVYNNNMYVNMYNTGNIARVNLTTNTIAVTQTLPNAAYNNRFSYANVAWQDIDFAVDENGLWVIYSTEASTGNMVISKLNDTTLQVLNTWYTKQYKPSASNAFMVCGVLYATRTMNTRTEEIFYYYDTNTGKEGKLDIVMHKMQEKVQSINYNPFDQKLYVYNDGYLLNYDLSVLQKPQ
Olfactomedin 4 (OLFM4), full-length: residues 21-510 of Q6UX06
OLFM4Δ3 (31–234 aa): residues 31-234 of Q6UX06

Key:
Test in all cases: co-IP; U266 cells transfected with HA- or Flag-tagged expression plasmids for 48 h; lysate (1 mg) with anti-HA or anti-Flag antibody (10 μg) and protein A/G magnetic beads overnight at 4 °C, four washes with lysis buffer, Western blot; for LRG1 and OLFM4 also with cells treated with TGF-β
[1] = molecular target: OLFM1, full-length (UniProt Q99784)
[2] = molecular target: T1, OLFM2, full-length (UniProt O95897)
T1 sequence: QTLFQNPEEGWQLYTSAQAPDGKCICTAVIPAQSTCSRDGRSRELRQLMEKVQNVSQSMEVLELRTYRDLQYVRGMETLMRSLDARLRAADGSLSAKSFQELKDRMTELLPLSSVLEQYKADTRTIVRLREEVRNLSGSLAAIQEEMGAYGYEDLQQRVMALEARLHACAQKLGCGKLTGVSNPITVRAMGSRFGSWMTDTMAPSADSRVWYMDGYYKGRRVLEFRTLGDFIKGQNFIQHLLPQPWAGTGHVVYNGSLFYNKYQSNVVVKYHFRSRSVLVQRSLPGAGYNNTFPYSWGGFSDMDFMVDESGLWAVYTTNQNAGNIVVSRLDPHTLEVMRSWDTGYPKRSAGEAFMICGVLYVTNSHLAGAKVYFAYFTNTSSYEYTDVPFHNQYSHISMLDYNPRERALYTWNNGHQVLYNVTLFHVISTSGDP

[3] = molecular target: T2, OLFM3, full-length (UniProt Q96PB7)
T2 sequence: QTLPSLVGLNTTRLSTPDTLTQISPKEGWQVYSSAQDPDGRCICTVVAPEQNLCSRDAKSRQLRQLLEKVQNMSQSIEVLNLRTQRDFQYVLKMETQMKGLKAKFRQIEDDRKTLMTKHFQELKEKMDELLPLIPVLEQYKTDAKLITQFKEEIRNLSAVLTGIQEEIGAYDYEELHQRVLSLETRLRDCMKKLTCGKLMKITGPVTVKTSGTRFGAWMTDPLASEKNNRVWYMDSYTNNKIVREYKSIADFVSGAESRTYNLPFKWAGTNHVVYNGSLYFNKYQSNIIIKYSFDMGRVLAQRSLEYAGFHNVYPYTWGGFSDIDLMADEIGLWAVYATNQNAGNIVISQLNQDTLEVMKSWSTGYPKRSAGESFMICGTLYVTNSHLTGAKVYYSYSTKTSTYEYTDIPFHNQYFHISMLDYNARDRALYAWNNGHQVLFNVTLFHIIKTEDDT

[4] = molecular target: OLFM4Δ3 (31–234 aa) (UniProt Q6UX06)
[5] = molecular target: Olfactomedin 4 (OLFM4), full-length (UniProt Q6UX06)

binding [1]: no binding | binding [2]: no binding | binding [3]: no binding | binding [4]: no binding | binding [5]: binds
B1: Leucine-rich-alpha-2-glycoprotein 1 (LRG1), full-length (protein, UniProt P02750 36-347)
chain: VTLSPKDCQVFRSDHGSSISCQPPAEIPGYLPADTVHLAVEFFNLTHLPANLLQGASKLQELHLSSNGLESLSPEFLRPVPQLRVLDLTRNALTGLPPGLFQASATLDTLVLKENQLEVLEVSWLHGLKALGHLDLSGNRLRKLPPGLLANFTLLRTLDLGENQLETLPPDLLRGPLQLERLHLEGNKLQVLGKDLLLPQPDLRYLFLNGNKLARVAAGAFQGLRQLDMLDLSNNSLASVPEGLWASLGQPNWDMRDGFDISGNPWICDQNLSDLYRWLQAQKDKMFSQNDTRCAGPEAVKGQTLLAVAKSQ
